Assay results from PMC4697846.
Where a chain is given by its changes, count along the chain named. No constants are given. Whether binding was seen depends on the method and setting. Binding seen in cells or lysates may run through a third protein. Some results given as binding are weak or reduced against the parent protein; the word gives no strength. For some of these results: Sequences can lack the tags named with a protein.

T1: δ-sarcoglycan 283Q, full length (wild type) (human) (UniProt Q92629)
T1 sequence: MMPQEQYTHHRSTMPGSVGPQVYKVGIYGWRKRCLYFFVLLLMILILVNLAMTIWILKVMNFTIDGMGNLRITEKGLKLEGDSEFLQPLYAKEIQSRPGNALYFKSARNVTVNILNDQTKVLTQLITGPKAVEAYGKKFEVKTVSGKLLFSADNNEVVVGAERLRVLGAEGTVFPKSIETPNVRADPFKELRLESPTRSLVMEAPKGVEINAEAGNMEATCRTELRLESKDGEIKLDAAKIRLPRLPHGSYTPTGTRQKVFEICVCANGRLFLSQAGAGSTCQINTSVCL

T2: δ-sarcoglycan 283R, full length (p.Q283R polymorphism, A848G) (human) (UniProt Q92629)
T2 sequence: T1 sequence with Q283R

B1: β-sarcoglycan, full length (protein, UniProt Q16585 1-318)
chain: MAAAAAAAAEQQSSNGPVKKSMREKAVERRSVNKEHNSNFKAGYIPIDEDRLHKTGLRGRKGNLAICVIILLFILAVINLIITLVIWAVIRIGPNGCDSMEFHESGLLRFKQVSDMGVIHPLYKSTVGGRRNENLVITGNNQPIVFQQGTTKLSVENNKTSITSDIGMQFFDPRTQNILFSTDYETHEFHLPSGVKSLNVQKASTERITSNATSDLNIKVDGRAIVRGNEGVFIMGKTIEFHMGGNMELKAENSIILNGSVMVSTTRLPSSSSGDQLGSGDWVRYKLCMCADGTLFKVQVTSQNMGCQISDNPCGNTH
B2: γ-sarcoglycan, full length (protein, UniProt Q13326 1-291)
chain: MVREQYTTATEGICIERPENQYVYKIGIYGWRKRCLYLFVLLLLIILVVNLALTIWILKVMWFSPAGMGHLCVTKDGLRLEGESEFLFPLYAKEIHSRVDSSLLLQSTQNVTVNARNSEGEVTGRLKVGPKMVEVQNQQFQINSNDGKPLFTVDEKEVVVGTDKLRVTGPEGALFEHSVETPLVRADPFQDLRLESPTRSLSMDAPRGVHIQAHAGKIEALSQMDILFHSSDGMLVLDAETVCLPKLVQGTWGPSGSSQSLYEICVCPDGKLYLSVAGVSTTCQEHNHICL
B3: α-sarcoglycan, full length (protein, UniProt Q16586 24-387)
chain: QQTTLHPLVGRVFVHTLDHETFLSLPEHVAVPPAVHITYHAHLQGHPDLPRWLRYTQRSPHHPGFLYGSATPEDRGLQVIEVTAYNRDSFDTTRQRLVLEIGDPEGPLLPYQAEFLVRSHDAEEVLPSTPASRFLSALGGLWEPGELQLLNVTSALDRGGRVPLPIEGRKEGVYIKVGSASPFSTCLKMVASPDSHARCAQGQPPLLSCYDTLAPHFRVDWCNVTLVDKSVPEPADEVPTPGDGILEHDPFFCPPTEAPDRDFLVDALVTLLVPLLVALLLTLLLAYVMCCRREGRLKRDLATSDIQMVHHCTIHGNTEELRQMAASREVPRPLSTLPMFNVHTGERLPPRVDSAQVPLILDQH
B4: α-dystroglycan, full length (protein, UniProt Q14118 30-653)
chain: HWPSEPSEAVRDWENQLEASMHSVLSDLHEAVPTVVGIPDGTAVVGRSFRVTIPTDLIASSGDIIKVSAAGKEALPSWLHWDSQSHTLEGLPLDTDKGVHYISVSATRLGANGSHIPQTSSVFSIEVYPEDHSELQSVRTASPDPGEVVSSACAADEPVTVLTVILDADLTKMTPKQRIDLLHRMRSFSEVELHNMKLVPVVNNRLFDMSAFMAGPGNAKKVVENGALLSWKLGCSLNQNSVPDIHGVEAPAREGAMSAQLGYPVVGWHIANKKPPLPKRVRRQIHATPTPVTAIGPPTTAIQEPPSRIVPTPTSPAIAPPTETMAPPVRDPVPGKPTVTIRTRGAIIQTPTLGPIQPTRVSEAGTTVPGQIRPTMTIPGYVEPTAVATPPTTTTKKPRVSTPKPATPSTDSTTTTTRRPTKKPRTPRPVPRVTTKVSITRLETASPPTRIRTTTSGVPRGGEPNQRPELKNHIDRVDAWVGTYFEVKIPSDTFYDHEDTTTDKLKLTLKLREQQLVGEKSWVQFNSNSQLMYGLPDSSHVGKHEYFMHATDKGGLSAVDAFEIHVHRRPQGDRAPARFKAKFVGDPALVLNDIHKKIALVKKLAFAFGDRNCSTITLQNITRG
B5: β-dystroglycan, full length (protein, UniProt Q14118 654-895)
chain: SIVVEWTNNTLPLEPCPKEQIAGLSRRIAEDDGKPRPAFSNALEPDFKATSITVTGSGSCRHLQFIPVVPPRRVPSEAPPTEVPDRDPEKSSEDDVYLHTVIPAVVVAAILLIAGIIAMICYRKKRKGKLTLEDQATFIKKGVPIIFADELDDSKPPPSSSMPLILQEEKAPLPPPEYPNQSVPETTPLNQDTMGEYTPLRDEDPNAPPYQPPPPFTAPMEGKGSRPKNMTPYRSPPPYVPP

molecular target: T1, δ-sarcoglycan 283Q, full length (wild type) (human); experiment: co-IP; full-length δ-SG-283Q or δ-SG-283R separately co-expressed with each full-length DGC component in HEK293T cells; whole cell lysate immunoprecipitated with cognate antibodies, Western blot; 4 independent assays

Row | Binder | binding
1 | B1 | binds
2 | B2 | binds
3 | B3 | binds weakly
4 | B4 | no binding
5 | B5 | no binding

molecular target: T2, δ-sarcoglycan 283R, full length (p.Q283R polymorphism, A848G) (human); experiment: as above

Row | Binder | binding
6 | B1 | binds
7 | B2 | binds
8 | B3 | binds weakly
9 | B4 | no binding
10 | B5 | no binding
